# Positions count from the first letter of the chain named. These are yes or no findings as the source states them, for the method shown. Binding seen in cells or lysates may run through a third protein. Some entries that bind do so weakly or less than the wild type. Tags and fused reporters may be left off the sequences shown.
# The chains behind the UniProt entries cited, without tags or fusion partners.
# UniProt Q7Z2Z1: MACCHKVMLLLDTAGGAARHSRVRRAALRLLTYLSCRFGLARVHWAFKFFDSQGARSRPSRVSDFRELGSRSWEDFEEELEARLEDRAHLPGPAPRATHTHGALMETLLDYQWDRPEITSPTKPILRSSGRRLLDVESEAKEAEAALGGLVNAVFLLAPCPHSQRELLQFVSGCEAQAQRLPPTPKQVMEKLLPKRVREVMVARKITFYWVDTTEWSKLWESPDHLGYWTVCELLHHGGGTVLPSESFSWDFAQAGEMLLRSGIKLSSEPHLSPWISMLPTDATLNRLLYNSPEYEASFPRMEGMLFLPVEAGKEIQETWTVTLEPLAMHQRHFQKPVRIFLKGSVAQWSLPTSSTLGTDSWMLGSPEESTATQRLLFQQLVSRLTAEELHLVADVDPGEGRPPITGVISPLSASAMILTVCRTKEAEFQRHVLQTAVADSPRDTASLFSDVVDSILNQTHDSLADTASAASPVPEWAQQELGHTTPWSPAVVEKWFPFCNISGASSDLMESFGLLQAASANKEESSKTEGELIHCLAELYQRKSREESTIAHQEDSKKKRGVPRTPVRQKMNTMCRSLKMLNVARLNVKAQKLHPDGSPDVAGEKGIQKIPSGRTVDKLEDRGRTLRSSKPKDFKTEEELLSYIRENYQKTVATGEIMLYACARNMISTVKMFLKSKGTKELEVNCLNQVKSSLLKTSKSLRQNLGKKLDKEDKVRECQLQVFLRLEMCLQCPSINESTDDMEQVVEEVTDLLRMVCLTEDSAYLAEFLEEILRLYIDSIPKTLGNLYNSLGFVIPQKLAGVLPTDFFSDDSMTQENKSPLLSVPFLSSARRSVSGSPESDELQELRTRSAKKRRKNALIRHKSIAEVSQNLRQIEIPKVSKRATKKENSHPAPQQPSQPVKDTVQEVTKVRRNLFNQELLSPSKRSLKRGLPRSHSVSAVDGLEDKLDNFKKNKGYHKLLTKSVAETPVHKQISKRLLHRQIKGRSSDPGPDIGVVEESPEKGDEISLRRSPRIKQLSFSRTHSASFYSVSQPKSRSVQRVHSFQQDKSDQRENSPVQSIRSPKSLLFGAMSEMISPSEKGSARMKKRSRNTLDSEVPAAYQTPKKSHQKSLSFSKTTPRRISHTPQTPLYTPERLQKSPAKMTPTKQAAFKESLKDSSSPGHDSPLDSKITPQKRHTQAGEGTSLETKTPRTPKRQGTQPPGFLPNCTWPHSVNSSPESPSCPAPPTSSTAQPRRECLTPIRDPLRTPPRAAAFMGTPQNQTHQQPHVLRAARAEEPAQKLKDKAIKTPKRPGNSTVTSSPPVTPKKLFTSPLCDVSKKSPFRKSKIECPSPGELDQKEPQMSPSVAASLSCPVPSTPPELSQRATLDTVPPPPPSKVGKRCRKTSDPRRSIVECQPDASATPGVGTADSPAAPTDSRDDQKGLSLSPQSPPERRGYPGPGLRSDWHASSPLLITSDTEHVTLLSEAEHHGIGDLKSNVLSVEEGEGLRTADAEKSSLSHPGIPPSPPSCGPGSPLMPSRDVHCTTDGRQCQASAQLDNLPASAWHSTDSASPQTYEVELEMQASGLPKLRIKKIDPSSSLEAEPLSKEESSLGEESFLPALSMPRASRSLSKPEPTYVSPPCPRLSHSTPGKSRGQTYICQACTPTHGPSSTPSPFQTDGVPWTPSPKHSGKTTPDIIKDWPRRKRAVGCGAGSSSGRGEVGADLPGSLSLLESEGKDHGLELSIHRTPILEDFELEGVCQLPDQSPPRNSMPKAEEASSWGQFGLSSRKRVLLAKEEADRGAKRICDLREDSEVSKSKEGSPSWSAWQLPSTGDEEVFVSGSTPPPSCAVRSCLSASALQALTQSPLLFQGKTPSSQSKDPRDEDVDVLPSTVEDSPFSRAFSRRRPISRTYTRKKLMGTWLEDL
# UniProt P49336: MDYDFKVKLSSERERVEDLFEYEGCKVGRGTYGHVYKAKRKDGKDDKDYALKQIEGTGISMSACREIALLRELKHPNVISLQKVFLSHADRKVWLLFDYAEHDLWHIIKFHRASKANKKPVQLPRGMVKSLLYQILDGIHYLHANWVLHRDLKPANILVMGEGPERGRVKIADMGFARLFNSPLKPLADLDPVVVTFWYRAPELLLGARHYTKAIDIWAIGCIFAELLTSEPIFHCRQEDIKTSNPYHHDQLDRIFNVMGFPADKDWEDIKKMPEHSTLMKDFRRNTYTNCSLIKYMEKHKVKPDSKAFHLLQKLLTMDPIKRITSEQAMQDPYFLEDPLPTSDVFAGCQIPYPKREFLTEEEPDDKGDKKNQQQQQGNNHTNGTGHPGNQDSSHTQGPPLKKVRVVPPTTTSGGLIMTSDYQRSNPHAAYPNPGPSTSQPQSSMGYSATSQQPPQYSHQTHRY
# Key:
# Test in all cases: co-IP; 293T transiently transfected with C-terminally 3×Flag-tagged MTBP; anti-FLAG antibody on Protein G Dynabeads, lysis buffer 20 mM HEPES, 150 mM NaCl, 10% glycerol, 0.1% Triton X-100, 1 h at 4°C; endogenous Treslin/TICRR and Cdk8 by immunoblot
# [1] = biological target: T1, MTBP I309D, C-terminally 3×Flag-tagged (293T) (human) (UniProt Q96DY7)
# T1 sequence: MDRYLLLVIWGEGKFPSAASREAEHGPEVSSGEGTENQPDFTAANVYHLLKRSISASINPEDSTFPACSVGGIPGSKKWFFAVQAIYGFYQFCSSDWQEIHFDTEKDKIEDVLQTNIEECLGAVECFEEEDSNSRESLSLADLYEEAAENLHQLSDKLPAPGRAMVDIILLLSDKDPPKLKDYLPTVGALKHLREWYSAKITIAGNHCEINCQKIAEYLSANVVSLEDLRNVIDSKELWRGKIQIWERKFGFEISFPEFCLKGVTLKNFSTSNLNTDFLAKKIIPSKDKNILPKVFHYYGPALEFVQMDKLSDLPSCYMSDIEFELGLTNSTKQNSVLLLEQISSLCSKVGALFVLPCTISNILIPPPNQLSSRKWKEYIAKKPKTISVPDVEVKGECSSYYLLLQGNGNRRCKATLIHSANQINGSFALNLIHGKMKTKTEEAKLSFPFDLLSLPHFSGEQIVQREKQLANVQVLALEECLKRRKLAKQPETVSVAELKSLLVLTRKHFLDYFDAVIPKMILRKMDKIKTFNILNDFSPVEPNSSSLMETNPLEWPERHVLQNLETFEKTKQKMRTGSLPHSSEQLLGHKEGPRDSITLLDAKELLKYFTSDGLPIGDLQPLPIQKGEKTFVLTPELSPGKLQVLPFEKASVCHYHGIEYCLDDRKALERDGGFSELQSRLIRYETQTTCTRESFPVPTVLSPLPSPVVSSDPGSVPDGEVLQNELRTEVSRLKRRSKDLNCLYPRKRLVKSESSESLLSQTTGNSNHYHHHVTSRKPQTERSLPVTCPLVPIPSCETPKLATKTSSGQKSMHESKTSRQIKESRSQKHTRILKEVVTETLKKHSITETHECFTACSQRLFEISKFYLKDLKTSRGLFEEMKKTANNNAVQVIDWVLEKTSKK
# [2] = biological target: T2, MTBP-Δphyr2, C-terminally 3×Flag-tagged (293T) (human) (UniProt Q96DY7)
# T2 sequence: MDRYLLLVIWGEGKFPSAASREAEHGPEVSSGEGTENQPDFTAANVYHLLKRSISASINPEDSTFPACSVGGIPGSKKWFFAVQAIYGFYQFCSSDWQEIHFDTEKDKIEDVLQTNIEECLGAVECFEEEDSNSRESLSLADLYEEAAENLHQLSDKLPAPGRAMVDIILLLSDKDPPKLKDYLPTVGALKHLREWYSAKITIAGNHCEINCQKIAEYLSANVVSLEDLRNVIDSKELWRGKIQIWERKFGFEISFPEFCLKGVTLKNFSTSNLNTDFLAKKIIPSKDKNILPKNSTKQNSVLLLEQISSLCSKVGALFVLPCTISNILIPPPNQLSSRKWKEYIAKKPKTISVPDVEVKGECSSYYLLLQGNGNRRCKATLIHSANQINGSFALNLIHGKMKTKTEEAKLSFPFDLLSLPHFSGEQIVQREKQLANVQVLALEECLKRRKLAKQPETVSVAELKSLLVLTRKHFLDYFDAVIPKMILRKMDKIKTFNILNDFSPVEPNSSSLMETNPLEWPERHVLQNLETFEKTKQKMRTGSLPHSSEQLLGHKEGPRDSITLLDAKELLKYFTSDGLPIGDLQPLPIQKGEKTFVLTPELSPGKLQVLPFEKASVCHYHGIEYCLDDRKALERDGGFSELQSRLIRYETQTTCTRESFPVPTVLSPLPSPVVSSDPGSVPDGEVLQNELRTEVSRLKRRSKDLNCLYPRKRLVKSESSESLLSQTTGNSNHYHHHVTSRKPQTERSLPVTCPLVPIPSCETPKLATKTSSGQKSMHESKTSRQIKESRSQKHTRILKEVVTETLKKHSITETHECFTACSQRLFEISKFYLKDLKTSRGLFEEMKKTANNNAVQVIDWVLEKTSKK
# [3] = biological target: T3, MTBP-m2 (A415Q), C-terminally 3×Flag-tagged (293T) (human) (UniProt Q96DY7)
# T3 sequence: T1 sequence with D309I, A415Q
substance,measurement,setting,value
"Treslin/TICRR (TopBP1-interacting replication stimulating protein/TopBP1-interacting checkpoint and replication regulator), endogenous (from UniProt Q7Z2Z1 1-1910)",binding,[1],no binding
same,binding,[2],no binding
same,binding,[3],no binding
"Cdk8 (cyclin-dependent kinase 8), endogenous (from UniProt P49336 1-464) (enzyme)",binding,[1],binds
same,binding,[2],binds
same,binding,[3],binds

# Source: article PMC6377148
